Test: Steady-state plasma pharmacokinetics, open-label randomized three-way crossover study, drugs alone or in combination
Details: Amantadine + Oseltamivir/Oseltamivir alone
[1] = oseltamivir carboxylate in plasma

Row | Structure (SMILES) | Clast (Ctrough), ratio of geometric means [1] | Cmax, ratio of geometric means [1] | Clast (Ctrough), ratio of geometric means (oseltamivir in plasma) | Cmax, ratio of geometric means (oseltamivir in plasma)
1 | CCC(CC)O[C@@H]1C=C(C(=O)O)C[C@H](N)[C@H]1NC(C)=O [Oseltamivir carboxylate, oseltamivir carboxylate] | 1.03 | 0.95 | – | –
2 | CCOC(=O)C1=C[C@@H](OC(CC)CC)[C@H](NC(C)=O)[C@@H](N)C1 [Oseltamivir, oseltamivir, reference compound] | – | – | 0.95 | 0.85

— article PMC2110886 (PLoS ONE, 2007)
